Test results as given in the RNAGym collection of RNA variant scans (doi:10.7554/elife.90254).
Read counts are not given, so values of variants with three or more changes are uncertain.

B1: LINE1-mini (parent)
chain: GGCAGAGCUCAACACAGCGUGGCAAAGUGGCUGUGGCUAGACUGCC

Variants of: B1
Test: self-cleavage, relative activity (ratio to wild type); higher = more cleavage; in vitro, sequencing; the parent is a self-cleaving ribozyme

| Variant | self-cleavage |
| --- | --- |
| GGCAGAGCUCAAUAGAGUGUGGUAAAGUGGCUGUGGCUAGACUGCC [C13U C15G C18U C23U] | 0.04 |
| GCAAGAGCUCAACACAGCGUGGCAAAGUGGCCGUGGCUAGACUGCU [G2C C3A U32C C46U] | 0.04 |
| GGCAUAGCUCAACACAGCGUGGCAAAGUGGCUGUGGCUACCCUGCC [G5U G40C A41C] | 0 |
| GGCAUAGCUCCAUACAGCGUGGCAAAGUGCCUGUGGCUAGACUGCC [G5U A11C C13U G30C] | 0.04 |
| GGCAGAGCUCCACACAGCGGGGCAAAGUGGCUGUGGCUGGACUGCA [A11C U20G A39G C46A] | 0.05 |
| GGCAGAGCUCAACCCAGCGAGGCAAAGUGGCUGUCGCCAGACUGCC [A14C U20A G35C U38C] | 0.01 |
| GGCAGAGCUCAACACAGCGUGGCUAAGUGACUGCGGCUAGACUGCG [A24U G30A U34C C46G] | 0.06 |
| GGCAGAGCUCAACACCGCGUGGCAAAGUGGCUGUCUCUAGACUGCC [A16C G35C G36U] | 0.04 |
| GGCAGAGCUCAACACAGAGUGGCAACUUGGCUGUGGCUAGACUGCC [C18A A26C G27U] | 0.43 |
| GGCAGAGGUCAACACAGCGUGGCAAAGUGGCUGCGGCUAGACUACC [C8G U34C G44A] | 0.04 |
| GGCAGAGCUCAACUCAGCGUGGCAAAGUGGAUGUGGCUAGCCUGCC [A14U C31A A41C] | 0.01 |
| GGCAGAGCUUACCACAGCGUGGCAAAAUGGCUGUGGCUAGACUGCC [C10U A12C G27A] | 0.02 |
| GGCAGCGAUCACCACAGCGUGGCAAAGUGGCUGUGGCUAGGCUGUC [A6C C8A A12C A41G C45U] | 0.06 |
| GGCCGAGCACAACACAGCGUGGCAAAAUGUCUGUGGCUAGACUGCC [A4C U9A G27A G30U] | 0.19 |
| GCCAGAGCGCAACACAGCGUGGUAAAGUGGCAGUGGCUAGACUGCC [G2C U9G C23U U32A] | 0.04 |
| GGCAGAGUUCAAAACAGCAUGGCAAAGUGGCUGUGGCUAUACUGCC [C8U C13A G19A G40U] | 0.25 |
| GGCAGAGCUCAACACAGCCUAGCAAAGUGGUUGUGGCUAGGCUGCC [G19C G21A C31U A41G] | 0.04 |
| GGCAGGGCUCAACACGGCGUGGCAAAGUGGCUGUGGCUAGACCGCC [A6G A16G U43C] | 0.07 |
| GGCACAGCUCAAAACGGCGUGGCAAAGUGGCUGUGGCUAGACUGCC [G5C C13A A16G] | 0.02 |

| Variant | self-cleavage |
| --- | --- |
| GGCAUAGCUCAACACACCGAGGCAAAGUGGCUGUGGCUAGACUGCC [G5U G17C U20A] | 0.02 |
| GGCAGAGCUCAAGACAACGUCGCAAAGUGGCUGUGGGUAGACUGCC [C13G G17A G21C C37G] | 0.08 |
| UGCAGAGCUCAACAAAGCGUAGCAAAGUAGCUGUGGCUAGACUGCC [G1U C15A G21A G29A] | 0.01 |
| GGCAUAGCUUAACAAAGCGUGGCAAAGUGGCUGUGGAUAGACUGCC [G5U C10U C15A C37A] | 0.03 |
| GGCAGAGCUCAACAAAGCGUGGCAAAGUGGCUGUCGCUAGAGUGCC [C15A G35C C42G] | 0.04 |
| GGCAGAGCUCAACGCAGCGUGGCAAAGUAGCUGUGACUAGAUUGCC [A14G G29A G36A C42U] | 0.36 |
| GGCAAGGCUCAACACGGUGUGGCAAAGUGGCUGUGGCUAGACUGGC [G5A A6G A16G C18U C45G] | 0.36 |
| GGCAGAGGUCAACACAGCGUCGCAAAGUGGCUCUGACUAGACUGCC [C8G G21C G33C G36A] | 0.02 |
| GGCAGAGCUCAAAACAGCGUGGAAACGUGGCUGUGGCUAGACUGCC [C13A C23A A26C] | 0.21 |
| GGCAGAGCUCAACCCAGCGGGGCAAAGUGGCUGUGGCGAGAUUGCC [A14C U20G U38G C42U] | 0.05 |
| GGCGGAGCUCAACACCGCGUGGCAAAGUGGCUGUGGCAAGACUGCC [A4G A16C U38A] | 0.06 |
| GGCAGAGCUCAACGAAGCGUGGCAAAGUGGCUGUGGCGAGACUGCC [A14G C15A U38G] | 0.1 |
| AGCAGAGCUCAACACACCGUGGCAAAGUGGCUGUGGCCAAACUGCC [G1A G17C U38C G40A] | 0.07 |
| GGCAGAGCUGAACACAUCGUGGCAAAGAGGCUGUGGCUAGACUGCC [C10G G17U U28A] | 0.05 |
| GGCAGAGCGCAACACAGUGUGGCACAGUGGCUGUGGCUAGACUUGC [U9G C18U A25C G44U C45G] | 0.05 |
| GGCAUAGCUCAACACAGCGGGGCAAAGUGGCUGUUGCUAUACUGCC [G5U U20G G35U G40U] | 0.05 |
| GGCAGCGCUGAACACAGCGUGGCAAAGUGGCUCUCGCUAGACUGCC [A6C C10G G33C G35C] | 0.01 |
| GGCAGAGCUCAACACAGCGUGGCAAGGUGGCAGUGGCUAGACUACC [A26G U32A G44A] | 0.03 |
| GGCAGAGCUUAACACAGUGUGGCAAAGUCGCUGUGGCUAGACUGCC [C10U C18U G29C] | 0.1 |

| Variant | self-cleavage |
| --- | --- |
| GGCAGAGCUCAAUACAGCAUGGCAAAGUGGCUGUGGCUAGACUGCU [C13U G19A C46U] | 0.29 |
| GGCAGGGCUCAACACAGCUUGGCAAAGUCGCUGUGGCUAGACUGCC [A6G G19U G29C] | 0.01 |
| GGCAGAGCCCCACACAGCGUGGCAAAGGGGCUGUGGCUAGACUGCC [U9C A11C U28G] | 0.03 |
| GGCAGAGCUCAACACAGCGCGGCAAAGUAGCUGUGGCUGGACUGCC [U20C G29A A39G] | 0.04 |
| GGCAUAGCUCAACACAGCGUGGCAAAGUGGCCGUGGCUAUACUGCC [G5U U32C G40U] | 0.06 |
| GCGAGAGCUUAACACAGCAUGGCAAAAUGGCUGUGGCUAGACUGCC [G2C C3G C10U G19A G27A] | 0.47 |
| GGCAGAGCUCAACACAGCGUGGUAAAGUGUCUAUGGCUAGACUGCC [C23U G30U G33A] | 0.05 |
| GGCAUAGGUCAACAAAGCGUGGCAAAGUGGCUGUGGCUAGACUGCC [G5U C8G C15A] | 0.01 |
| GGCAGAGCUCAACAUAGCCUGGCAAAGUGGCUGGGGCUAGACUGCC [C15U G19C U34G] | 0.08 |
| GCCAGAGCUCAACACAUCGUGGCAAAGUGGCGUUGGCUAGACUGCC [G2C G17U U32G G33U] | 0.11 |
| GACACAGCUCAACACUGCGUGGCAAAGUGGCUGUGGCUAGACUGCC [G2A G5C A16U] | 0.08 |
| GGCAGAGUUCAACAGAGCGUGGCAAAGUGGCUCUGGGUAGACUGCC [C8U C15G G33C C37G] | 0.05 |
| GGCAGAGCUCAACACAGCUUGGCAAAGCGGCUGGGGCAAGACUGCC [G19U U28C U34G U38A] | 0.13 |
| GGUACAACUCAACACAGCGUGGCAAAGUGGCUGUGGCUAGACUGCC [C3U G5C G7A] | 1.24 |
| GGCAGGGCUCAACACAGCGUCGCAUAGUGGCUGUGGCUAGACUGCC [A6G G21C A25U] | 0.06 |
| CGCAGAACUCAACACAGAGUGGCAAAGUGGCUGUGGCUAAACUGAC [G1C G7A C18A G40A C45A] | 0.01 |
| GGCAGAGCUCAACACAGCGUGCCAGAGUGGCAGUGGCUAGCCGGCC [G22C A25G U32A A41C U43G] | 0.01 |
| GGCAACGCUCAACACAGCGUGGCAAAGUGGCUUUGGCUAGACUGCC [G5A A6C G33U] | 0.04 |
